In the supplement of paper PMC3334620:
In all, about 33,000 sequences were measured (“E-score (-0.5 to 0.5)”: median about -0.016, highest 2% from about 0.32 on). Some of the results follow.

These sequences were tested against T1, Stp1 (UniProt B3LFK1) (assay: PBM E-score (8-mer binding enrichment) (E-score (-0.5 to 0.5)); higher = stronger / more preferred TF binding; most listed sequences are background and not binding sites). Conditions: protein concentration: 200 nM; construct: GST-full length.
T1 sequence: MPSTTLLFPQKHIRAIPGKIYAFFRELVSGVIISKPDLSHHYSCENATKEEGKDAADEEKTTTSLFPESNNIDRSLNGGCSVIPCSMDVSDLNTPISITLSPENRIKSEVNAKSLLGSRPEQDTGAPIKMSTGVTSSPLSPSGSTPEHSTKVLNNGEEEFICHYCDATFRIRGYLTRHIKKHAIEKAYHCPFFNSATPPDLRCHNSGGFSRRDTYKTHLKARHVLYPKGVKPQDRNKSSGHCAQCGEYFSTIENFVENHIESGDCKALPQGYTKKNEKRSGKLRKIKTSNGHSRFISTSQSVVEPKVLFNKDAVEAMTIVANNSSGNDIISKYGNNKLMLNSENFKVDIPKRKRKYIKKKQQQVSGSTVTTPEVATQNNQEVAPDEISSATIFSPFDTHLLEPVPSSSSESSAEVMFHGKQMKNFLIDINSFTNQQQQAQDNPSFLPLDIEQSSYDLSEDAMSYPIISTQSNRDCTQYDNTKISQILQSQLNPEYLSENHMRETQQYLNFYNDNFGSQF
Outline: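 Each ungapped eight-base word and its reverse complement, pooled, received an E-score from the Universal PBM Analysis Suite. Underlying scans, normalised with masliner, recorded fluorescent anti-GST bound to GST-tagged yeast transcription factors. These were applied at about 100-200 nM to universal all-10-mer Agilent arrays double-stranded by primer extension.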

| Sequence | PBM E-score |
| --- | --- |
| ACAAAGCG | 0.217 |
| GCTAGCGA | -0.106 |
| ACGGAGAC | 0.0753 |
| AAGTTATA | 0.21 |
| GGCGTATA | 0.129 |
| ATGCTAGA | -0.0708 |
| ACCGAACC | -0.247 |
| TCATTAGA | 0.0907 |
| AGACCTGG | -0.232 |
| TCGCGCCA | 0.132 |
| ATTACTAC | -0.161 |
| ATTAGCAG | 0.0629 |
| CCATTGGC | -0.217 |
| AGTTTCGA | -0.118 |
| CGTAGGAA | -0.0469 |
| ACAGCCGT | 0.354 |
| TCTAGTAA | 0.252 |
| CATCCTGG | -0.057 |
| ATTACCGG | -0.165 |
| ATGGATGG | -0.185 |
| CGGCTCGA | 0.252 |
| CGACGTCC | -0.0499 |

| Sequence | PBM E-score |
| --- | --- |
| CAGGGTTA | -0.166 |
| ACTGTCAC | -0.0761 |
| AGACATCA | -0.0861 |
| AGGTGTTA | -0.063 |
| AACATTGG | -0.281 |
| GCTCGAGA | -0.105 |
| ACGACGCT | -0.195 |
| ACAATAAA | 0.0704 |
| CCCGTTAA | -0.15 |
| ATAGCTAC | -0.198 |
| GCCGTTGA | 0.383 |
| GCTTATGA | -0.114 |
| GGCCATGA | -0.115 |
| GTTGTACA | 0.162 |
| CGCATCCA | 0.167 |
| GTAGTGAC | 0.01 |
| GGCTGTAA | 0.0912 |
| AGGCATTA | 0.228 |
| CATCGACG | 0.0261 |
| AAGGGTCG | 0.0331 |
| GAGAACGA | -0.186 |
| CGGGGTCC | -0.174 |

| Sequence | PBM E-score |
| --- | --- |
| GCTCGATA | 0.118 |
| AGATCTCA | -0.117 |
| TCTGAAGA | -0.0345 |
| CGATTATC | -0.115 |
| AAACAACA | -0.00459 |
| ATAATTTG | 0.128 |
| ACGCCACC | -0.175 |
| CGGGGATA | -0.202 |
| CCACATCG | -0.069 |
| AAGTTGTA | 0.131 |
| TCTCTGCA | -0.181 |
| ACACGGCC | 0.344 |
| CCAACCAA | 0.00122 |
| TCGTAAAA | 0.208 |
| CGCTGAGC | 0.0483 |
| CCTACGAC | -0.165 |
| TCATGCCA | 0.165 |
| CTATGGCA | 0.159 |
| CCTCTGCA | -0.00163 |
| ACTAGCCG | -0.0183 |
| AGGCGGTG | -0.0908 |
| CAGCCCTC | -0.34 |

| Sequence | PBM E-score |
| --- | --- |
| TCTTTTAA | 0.0818 |
| ATGGCACA | 0.229 |
| CCGTTGAG | 0.00872 |
| CTCTCCAA | 0.0128 |
| GACCGAAA | -0.0567 |
| AGTTGGGC | 0.0109 |
| GGTTTTTA | -0.027 |
| CAAAAGTA | 0.188 |
| AAGTCTCG | -0.199 |
| CCGGAGGA | -0.435 |
| ATGGGCTA | -0.0321 |
| ACTAACTA | -0.217 |
| ACCGTAAG | 0.12 |
| CCGCGGGA | 0.218 |
| ATCCTTCG | -0.0628 |
| CACGATTA | -0.00784 |
| CGCGACCA | 0.031 |
| GGTGGGTA | -0.0905 |
| AGTCTGAC | -0.271 |
| GATGGCAC | 0.196 |
